Test results: the supplement of paper PMC11417369
The list shows a part of the results.

Test system: PF3D7_0420300 AP2 domain 1 (GST-tagged)
Test: gcPBM binding intensity (ln(normalized median fluorescence intensity)); higher = stronger DNA binding
How it was run: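 An Agilent 4 × 180k array of primer-extended double-stranded 36-bp intergenic genomic probes, with negative controls, was incubated for 1 h with GST-tagged P. falciparum DNA-binding domains expressed in E. coli. Alexa488 anti-GST antibody detected bound protein, scanned at 488 nm. Binding intensity is the highest Masliner-normalised natural-log median intensity across replicate spots of either probe orientation.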

| Sequence | gcPBM binding intensity (ln) |
| --- | --- |
| TCATTGAAAATTGTTGCACACATAATAATTAAATAT [CACACA_site8554] | 9.26 |
| ACACATATGTCTTCATGTACATAATATATAAATCTT [XGTACX_site3438] | 9.26 |
| CATAAATCAGCCATAACACACATACATATATACATA [CACACA_site8025] | 9.63 |
| TCTTGTTTATCAACAGCACACACAACAACAACAACA [CACACA_site8046] | 9.49 |
| TAAAGGTAGATATATTGTACATACACACCTATATAA [XGTACX_site6865] | 9.31 |
| TATATATATACAGTTGCATGTTGTGTTTAAAATTTT [TGCATGCA_site816] | 9.53 |
| TGTTAAAAAATGGATGCACACATTAAATAAAAAGTA [CACACA_site1660] | 9.53 |
| ACATTATATTTGGACTGTACTAATATATTGTTATAT [XGTACX_site5573] | 9.25 |
| TATACATATATATATTGTACATATTATATATATATA [XGTACX_site3286] | 9.13 |
| ATATATATATATATATGTACATATTGTATCTTATAC [XGTACX_site5466] | 9.2 |
| ACATTTAATGTTATATGTACATAATATTATAAGTAT [XGTACX_site1393] | 9.3 |
| AATGTAAAAGTAAACACACACATATATTTATACATA [CACACA_site7218] | 9.77 |
| AGCCATATCTTTTTTGCACACACTACAATAAAACAA [CACACA_site1650] | 9.56 |
| CATATGGCAATAATTACATGCAAAAAAAAAAAAAAA [TGCATGCA_site578] | 8.88 |
| ACAGACGTTCAAAGGTGTACGCAAAATGAATAATAT [XGTACX_site7565] | 9.22 |
| AAAAAAAAGAAAAACACACACATATATATATATAAT [CACACA_site4707] | 9.97 |
| GTAAATCGACACATACGTACATACATTTATATATAT [XGTACX_site3143] | 9.48 |
| TTCTTATTTAATGTATCACACACGAGAATAAAAAAT [CACACA_site8992] | 9.31 |
| TATATATATATATAATGTACTTATATTTTTTTGAGG [XGTACX_site2638] | 9.18 |
| TTAATTAAAACGAATACACACATAAATATGTAAAAG [CACACA_site6707] | 9.67 |
| ATATGTATAAGTATGTATATTTATTTATACTTATGT [GTGCAC_negctrl_site221] | 9.26 |
| AAAAAAAAAAAAAAAAGTACATATATATATTTATAT [XGTACX_site5893] | 9.15 |

| Sequence | gcPBM binding intensity (ln) |
| --- | --- |
| TTTTAAATTTAATTTACACACTTTTCATAGCATTGA [CACACA_site3794] | 9.23 |
| TTCTATTCACATTTTACACACGTCCATCGCATTTTA [CACACA_site3453] | 9.89 |
| TATATATATGGTTTAACACACGAGATAAAAGTATAT [CACACA_site2867] | 9.63 |
| TTATATTTATAAAATTGTATACCCCTTCTAACTTTC [CACACA_negctrl_site250] | 9.06 |
| ATTGTGCTCATCAGCACACACAACATCATGTAATAA [CACACA_site1863] | 9.47 |
| TATATGGTATGTATTACACACATATCACATATAGAT [CACACA_site7426] | 9.45 |
| AAATGTAATTTGTCTTTTATTTATATTTGACATGAT [TGCATGCA_negctrl_site520] | 9.11 |
| ATATTAATGATATATACACACATAAGTATTGTATAT [CACACA_site7844] | 9.45 |
| AAAAATTATAAAAAACAAATATTAAATAATTATTAA [GTGCAC_negctrl_site125] | 9.07 |
| TTGATGGGAAAAAACTTTTTTTTCTTTTTTTCTTTC [CACACA_negctrl_site328] | 8.84 |
| AAAAGGAAGATATATACACACATACAAATATTTATA [CACACA_site7093] | 9.79 |
| TATCACCCACCATGAAGTACATATTACCATTTGATG [XGTACX_site845] | 9.46 |
| ATAAATAAATAAAAGCGTACATATATATAAAATATA [XGTACX_site8107] | 9.39 |
| TTATACTAAATGAACACACACACATATATATATATA [CACACA_site99] | 9.81 |
| AGAGTTAAACGATATATATAAATATATATATATATA [GTGCAC_negctrl_site316] | 9.06 |
| AAAAAAAAAAACGACAGTACAATTATAATTTATATT [XGTACX_site2365] | 9.32 |
| AGATCATAATATTATACACACATTAGATATAGGTAA [CACACA_site6809] | 9.67 |
| ATGTCTTAAAAATTAAAACACACGTTCACTTTCATA [CACACA_site3385] | 9.22 |
| TGGTGAAAAATATAAATATAAATAAATATATATATA [CACACA_negctrl_site1725] | 9.02 |
| AGAAGAAAACAAAACACACACATATATCTTAATATA [CACACA_site2231] | 9.9 |
| AAAAAAAAAAACTTTGCATGTAATAATAAAAAAAAA [TGCATGCA_site81] | 9.08 |
| ATGATCTGTTTGTTTGTGCACATATATATATATTAA | 9.61 |
